# ChEMBL document CHEMBL5606458, “ASAP - ZIKV NS2B-NS3 protease fluorescence single point” (2024)
# The whole screen tested about 2,700 compounds, of which about 160 (5.9%) showed an effect of 50% or more. The list shows a part of the results.
# Target: Nonstructural protein 3 (Zika virus) (UniProt A0A024AXB9)
# [1] = PRVABC59, Concentration 50.0 uM, Number of replicates 1.0
# [2] = PRVABC59, Concentration 15.0 uM, Number of replicates 1.0
# Chain of UniProt A0A024AXB9 (A0A024AXB9 as listed by the source): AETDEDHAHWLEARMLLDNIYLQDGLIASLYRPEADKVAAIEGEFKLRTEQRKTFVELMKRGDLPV
smiles,measurement,setting,value
Cc1cc(N)c2cc(Cl)cc(Cl)c2n1,inhibition,"PRVABC59, Concentration 99.9 uM, Number of replicates 2.0, Standard deviation 12.824277322413067 %",-8.83%
Cc1cc(CO)c2cccc(Cc3ccccc3NC(=O)CNC3CC3)c2n1,inhibition,"PRVABC59, Concentration 49.95 uM, Number of replicates 2.0, Standard deviation 1.7355748528989599 %",6.05%
same,inhibition,"PRVABC59, Concentration 99.9 uM, Number of replicates 2.0, Standard deviation 0.6769255915552903 %",21.4%
CN(Cc1ccccc1Br)C(=O)C1CCN(c2ccc(C=O)cc2)CC1,inhibition,[1],24.1%
COc1ccccc1CN(CCCO)C(=O)C1CCN(c2ccc(C=O)cc2)CC1,inhibition,[1],23.9%
O=Cc1ccc(N2CCC(C(=O)N(CC3CC3)C[C@H]3CCCO3)CC2)cc1,inhibition,[1],26.6%
CNC(=O)C[C@@H](C)NS(=O)(=O)c1ccc(Oc2ccccc2Cl)cc1,inhibition,"PRVABC59, Concentration 49.5 uM, Number of replicates 2.0, Standard deviation 2.0401331432276226 %",-1.18%
same,inhibition,"PRVABC59, Concentration 99.01 uM, Number of replicates 2.0, Standard deviation 0.5602004425134 %",1.08%
same,inhibition,"PRVABC59, Concentration 198.0 uM, Number of replicates 2.0, Standard deviation 2.0129592787515875 %",4.53%
COc1cc(Cl)nc(NC(=O)c2cc(Cl)ccc2NS(=O)(=O)c2ccc(Oc3ccccc3Cl)cc2)n1,inhibition,[2],23.2%
C[C@H](NC(=O)C1CCN(c2ccc(C=O)cc2)CC1)c1ccccc1-n1cccn1,inhibition,"PRVABC59, Concentration 10.0 uM, Number of replicates 1.0",21.9%
Cc1ccc(CNC(=O)C2CCN(C(=O)c3cc(Cl)ccc3NS(=O)(=O)c3ccc(Oc4ccccc4Cl)cc3)CC2)cc1,inhibition,[2],17.7%
Cn1cc(CNC(=O)c2ccccc2-c2ccccn2)cn1,inhibition,"PRVABC59, Concentration 49.5 uM, Number of replicates 2.0, Standard deviation 2.966453080291244 %",-0.41%
same,inhibition,"PRVABC59, Concentration 99.01 uM, Number of replicates 2.0, Standard deviation 3.2933350179161565 %",0.283%
same,inhibition,"PRVABC59, Concentration 198.0 uM, Number of replicates 2.0, Standard deviation 2.8479582272272292 %",0.806%
CCOc1ccccc1CCNC(=O)c1cc(Cl)ccc1NS(=O)(=O)c1ccc(Oc2ccccc2Cl)cc1,inhibition,[2],9.83%
Cn1ccc(CN2CC[C@H](c3c[nH]c4ccccc34)C2)cc1=O,inhibition,"PRVABC59, Concentration 49.5 uM, Number of replicates 2.0, Standard deviation 0.9869168424646743 %",2.74%
same,inhibition,"PRVABC59, Concentration 99.01 uM, Number of replicates 2.0, Standard deviation 1.3893738957347146 %",5.37%
same,inhibition,"PRVABC59, Concentration 198.0 uM, Number of replicates 2.0, Standard deviation 1.456023236095902 %",9.72%
O=C(NCCc1ccc(C(F)(F)F)cc1)c1cc(Cl)ccc1NS(=O)(=O)c1ccc(Oc2ccccc2Cl)cc1,inhibition,[2],30.1%
O=Cc1ccc(N2CCC(C(=O)Nc3ccc(Oc4ccccc4Cl)cc3)CC2)cc1,inhibition,[1],11.4%
CCN(CC)C1CCN(C(=O)C2CCN(c3ccc(C=O)cc3)CC2)CC1,inhibition,[1],24.4%
COc1cc(COc2cncnc2)nc(N2CCNCC2)n1,inhibition,"PRVABC59, Concentration 49.5 uM, Number of replicates 2.0, Standard deviation 1.9988225514114575 %",2.77%
same,inhibition,"PRVABC59, Concentration 99.01 uM, Number of replicates 2.0, Standard deviation 1.7792629273662002 %",7.32%
same,inhibition,"PRVABC59, Concentration 198.0 uM, Number of replicates 2.0, Standard deviation 2.2100977909134136 %",16.6%
O=Cc1ccc(N2CCC(C(=O)NCCOc3ccc(F)cc3)CC2)cc1,inhibition,[1],24.6%
Cc1c(C(=O)N2CCC(n3cc(CO)nn3)CC2)[nH]c2cc(Cl)cc(Cl)c12,inhibition,"PRVABC59, Concentration 49.5 uM, Number of replicates 2.0, Standard deviation 1.4208906347015848 %",4.02%
same,inhibition,"PRVABC59, Concentration 99.01 uM, Number of replicates 2.0, Standard deviation 0.494827603753062 %",9.8%
same,inhibition,"PRVABC59, Concentration 198.0 uM, Number of replicates 2.0, Standard deviation 0.23449629857012413 %",15.6%
Cc1c(NC(=O)c2cc(Cl)ccc2NS(=O)(=O)c2ccc(Oc3ccccc3Cl)cc2)c(=O)n(-c2ccccc2)n1C,inhibition,[2],25.5%
CC(C)(O)CN(Cc1ccccc1)C(=O)c1cc(Cl)ccc1NS(=O)(=O)c1ccc(Oc2ccccc2Cl)cc1,inhibition,[2],22.2%
O=C(Nc1ccc(F)cc1I)c1cc(Cl)ccc1NS(=O)(=O)c1ccc(Oc2ccccc2Cl)cc1,inhibition,[2],26.2%
O=C(NC1CCN(C(=O)NC2CCCCC2)CC1)c1cc(Cl)ccc1NS(=O)(=O)c1ccc(Oc2ccccc2Cl)cc1,inhibition,[2],12.7%
Cc1cc(N)cc(CNC(=O)Cc2cccc3c(CO)cc(C)nc23)c1,inhibition,"PRVABC59, Concentration 49.95 uM, Number of replicates 2.0, Standard deviation 1.6254724488978287 %",7.61%
same,inhibition,"PRVABC59, Concentration 99.9 uM, Number of replicates 2.0, Standard deviation 2.5640510708053585 %",31.2%
Cc1ccc2[nH]cc(CCNC(=O)C3CCN(c4ccc(C=O)cc4)CC3)c2c1,inhibition,[1],12.9%
